The values that follow come from article PMC6919601, “Identification of Plasmodium dipeptidyl aminopeptidase allosteric inhibitors by high throughput screening” (PLoS ONE, 2019).

Hit rate of the full screen: of about 110,000 compounds, about 230 (0.21%) showed an effect of 50% or more. The list shows a part of the results.
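Also: 30 min substrate incubation versus DMSO and 10 µM JCP410 controls.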

Sequence of DPAP1 (Q8IIJ9 whole entry, looked up): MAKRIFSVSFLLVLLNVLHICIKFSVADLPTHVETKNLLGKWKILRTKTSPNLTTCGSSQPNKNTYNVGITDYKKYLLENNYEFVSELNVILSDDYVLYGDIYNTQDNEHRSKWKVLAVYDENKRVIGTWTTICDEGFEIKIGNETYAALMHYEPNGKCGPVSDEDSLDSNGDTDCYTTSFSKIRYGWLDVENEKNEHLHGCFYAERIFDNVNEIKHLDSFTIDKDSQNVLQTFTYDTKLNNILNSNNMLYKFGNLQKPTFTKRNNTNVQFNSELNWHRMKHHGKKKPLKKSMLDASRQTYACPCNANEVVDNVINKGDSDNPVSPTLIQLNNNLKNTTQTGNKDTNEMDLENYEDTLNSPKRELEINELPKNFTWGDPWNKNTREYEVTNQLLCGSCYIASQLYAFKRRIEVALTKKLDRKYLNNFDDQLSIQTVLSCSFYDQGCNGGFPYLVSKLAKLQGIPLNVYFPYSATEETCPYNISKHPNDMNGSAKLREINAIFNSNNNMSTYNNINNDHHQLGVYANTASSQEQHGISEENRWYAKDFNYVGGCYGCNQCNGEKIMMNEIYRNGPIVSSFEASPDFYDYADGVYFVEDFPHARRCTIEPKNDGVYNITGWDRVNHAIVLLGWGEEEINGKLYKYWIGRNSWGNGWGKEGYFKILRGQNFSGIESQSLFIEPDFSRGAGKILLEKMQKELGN

This assay has as its target DPAP1 (Plasmodium falciparum, UniProt Q8IIJ9). In words: primary screen, percent inhibition; read by cleavage of a fluorogenic dipeptide substrate; higher = more effect of the substance. Set-up: species or system P. falciparum D10 trophozoite lysates; single well.
Consider `O=C(NCC1CCCO1)c1cc(-c2ccncc2)nc2ccccc12` (stereo not drawn), for which the “% Inhibition @ 10 uM” value is listed as -6.16%.
For `CNc1ccc(Cl)cc1C(NC(N)=O)c1ccccc1` (stereo not drawn) the value was -5.16%; for `CCc1ccc(OCC(=O)Nc2ccc(Cl)cn2)cc1`, 0.512%.
For `NS(=O)(=O)c1ccc(CCNC(=O)Cn2c(SCc3ccc(F)cc3)nc3cccnc32)cc1` the value was 7.46%; for `COc1cccc(C2C=C(c3ccc(C)cc3)Nc3nnnn32)c1OC` (stereo not drawn), 0.0842%; for `Cc1cccc(C(=O)NC2(C(F)(F)F)C(=O)Nc3c2c(=O)[nH]c(=O)n3-c2ccc(F)cc2)c1` (stereo not drawn), 2.76%.
For `CCCc1ccc(OCc2ccc(C(=O)O)cc2)c(OC)c1` the value was 3.47%; for `O=Cc1c(C(=O)O)n(Cc2ccc(F)cc2Cl)c2ccccc12`, 3.24%; for `CC(=O)N1N=C(c2ccccc2)OC1(C)c1ccc(Br)cc1` (stereo not drawn), -4.73%.
As to `CC(C)(C)C(=O)Nc1ccc(C(=O)Nc2cccc(C(=O)O)c2)cc1`, the “% Inhibition @ 10 uM” value is recorded as -6.29%.
For `CCOc1ccc(CCNCc2c(C(=O)O)n(Cc3ccccc3F)c3cc(OC)ccc23)cc1` the value was 4.14%; for `Cc1nn(CC(=O)NCCCN2CCCC2=O)c(=O)c2nn(-c3ccccc3)c(C)c12`, -2.12%.
For `N=C1/C(=C\c2ccc(OCc3cccc4ccccc34)cc2)C(=O)N=C2SC(N3CCOCC3)=NN12` the value was -3.44%; for `CCCCN(C)C(=O)c1oc2ccc(S(=O)(=O)N3CCCCCC3)cc2c1C`, 4.36%; for `CCOc1cc(C2C3=C(CCCC3=O)OC3=C2C(=O)CCC3)ccc1O`, -17.2%.
For `Cc1nnc(SCC(=O)Nc2ncc3c(n2)CCCC3=O)s1` the value was 0.032%; for `COc1ccc(C2=NOC(C(=O)N3CCN(C(=O)c4ccco4)CC3)C2)cc1` (stereo not drawn), 4.74%; for `COCCNC(=O)c1cc(-c2ccc(C)c(C)c2)nc2ccccc12`, 1.57%.
With `Cc1ccc(C)c(C2C(C#N)=C(N)OC3=C2C(=O)CC(C)(C)C3)c1` (stereo not drawn), the “% Inhibition @ 10 uM” value came out at 5.66%.
As for `CN(Cc1ccccc1)c1c2c(nc3nncn13)CCC2`, the “% Inhibition @ 10 uM” value was -2.57%.
For `Cc1ccc(-n2ncc3c(O)nc(SCC(=O)NC4CCCCC4)nc32)cc1C` the value was -5.22%.
For `CCOc1ccc(C2c3c(oc4cc(C)c(C)cc4c3=O)C(=O)N2c2nccs2)cc1OC` (stereo not drawn) the value was 2.1%; for `COc1ccc(N(CC(O)CN2CCCCC2)S(=O)(=O)c2ccccc2)cc1` (stereo not drawn), -3.09%; for `CCSc1nnc(-c2ccccc2)n1N`, -3.63%.
For `O=C(O)CCCC(=O)Nc1ccc(Cl)cc1Cl` the value was 0.505%.
For the compound `Cc1ccccc1OCC(=O)Nc1ccc(CN2CCCCC2)cc1`, the “% Inhibition @ 10 uM” value is on record as -1.59%.
For `Cc1ccc2c(c1)-c1onc(C(=O)NCc3ccccc3Cl)c1CO2` the value was 0.589%; for `COc1cc(C)c(CN2CCCN(C)CC2)cc1C`, -2.08%; for `COc1ccc(-c2cc(C(=O)NCC3CCCO3)c3cc(C(C)C)ccc3n2)cc1` (stereo not drawn), 1.16%.
For `CC1(C)CC(=O)C2=C(C1)N(CC1CCCO1)C(=O)NC2(C(F)(F)F)C(F)(F)F` (stereo not drawn) the value was -3.33%; for `Cc1cc(Cl)ccc1OCC(=O)Nc1cc(C(F)(F)F)ccc1N1CCOCC1`, -0.173%.
For `CCOC(=O)c1c(C)oc2c1c(/C=N/Cc1ccccc1)c(O)c1ccccc12` the value was -3.21%; for `CC(C)(C)C1CCC(N2CCN(c3ccc(F)cc3)CC2)CC1` (stereo not drawn), 1.57%.
As to `O=C(CO)c1ccc2cc[nH]c2c1`, the “% Inhibition @ 10 uM” value worked out at 0.66%.
For the compound `O=C(CCc1nnc2n(CCc3ccccc3)c(=O)c3ccccc3n12)N1CCc2ccccc2C1`, the “% Inhibition @ 10 uM” value was determined as 2.6%.
For `CC(C)Cc1nnc(NS(=O)(=O)c2ccccc2)s1` the value was 2.04%; for `CCc1c(C)nc(N2CCOCC2)nc1O`, -2.91%; for `COCCN(Cc1cccs1)Cc1cc(=O)oc2ccc(OC)cc12`, 1.67%.
The figure for `Cc1cc(C(=O)O)ccc1-c1ccc(/C=C2\SC(=O)N(CC(=O)N3CCOCC3)C2=O)o1` is 11.2%; for `c1ccc(CCN2CCC(NC(c3ccccc3)c3ccccc3)CC2)cc1` it is 3.19%; for `O=C(Cc1ccccc1)N1N=C(C(F)F)CC1(O)C(F)F` (stereo not drawn) it is 0.5%.
The figure for `NC(=O)c1ccc(-n2c(CCC(=O)O)ccc2-c2cccs2)cc1` is -4.75%.
`CCOc1ccc(C(=O)Nc2ccc(F)cc2)cc1`: the “% Inhibition @ 10 uM” value is recorded as 2.06%.
For `Cc1c(C)n(Cc2ccccc2)c2ccc(C(=O)NCc3ccccn3)cc12` the value was -1.55%.
The figure for `COc1ccccc1N1CCN(C(=O)CCCC(=O)O)CC1` is 0.751%; for `CCNC(=O)N1c2ccc(C)cc2C2CN(C)CCC21` (stereo not drawn) it is -0.261%; for `CC(Oc1ccc(Cl)cc1Cl)C(=O)NCc1ccc(F)cc1` (stereo not drawn) it is -5.92%.
On to `CC(=O)NCC/N=C/C1=C(O)c2sccc2N(Cc2ccccc2)S1(=O)=O`, for which the “% Inhibition @ 10 uM” value is 0.886%.
For `CC(Sc1nc(-c2ccccc2)cc(C(F)(F)F)n1)C(=O)NCCCn1ccnc1` (stereo not drawn) the value was 0.778%; for `COc1ccc(CCNC(=O)c2ccc3c(c2)ncn3-c2ccc(F)cc2F)cc1OC`, 16.4%.
For the compound `O=c1/c(=C\c2cccc(O)c2)sc2nc3ccccc3n12`, the “% Inhibition @ 10 uM” value is -0.142%.
